Phenotypic hit data for 71 molecules are collected here from the supplement of paper PMC2702839.

Counter-ions that a name gives are not always drawn. The list shows a part of the results.

In this experiment the test system is Schistosoma mansoni schistosomula. The experiment is described as follows: phenotypic hit in primary schistosomula screen (any phenotype vs DMSO control) (binary (1 = hit, 0 = no phenotype)); higher = active (phenotype induced). Particulars: 1 µM; time (d): 7.
Turning to `COc1c(O)cc2c(c1O)[C@@H]1O[C@H](CO)[C@@H](O)[C@H](O)[C@H]1OC2=O` [bergenin], the phenotypic hit was inactive: 0. Consider `CC(=O)Oc1cccc(C(=O)O)c1OC(C)=O` [dipyrocetyl], for which the phenotypic hit is inactive: 0. The figure for `CC1OC1P(=O)(O)O` (stereo unspecified) [fosphomycin] is inactive: 0; for `CC(C)[C@H]1CC[C@H](C(=O)N[C@H](Cc2ccccc2)C(=O)O)CC1` [nateglinide] it is inactive: 0; for `COC(=O)/C(=C1/OC(=O)C(c2ccccc2)=C1O)c1ccccc1` [vulpinic acid] it is inactive: 0.

Regarding `COc1cc(-c2coc3cc(OCc4ccccc4)c(OC)c(O)c3c2=O)cc(O)c1OC` [irigenin, 7-benzyl ether], the phenotypic hit is inactive: 0. The figure for `COc1ccccc1OCCNCC(O)COc1cccc2[nH]c3ccccc3c12` (stereo unspecified) [carvedilol] is inactive: 0; for `CC1CCc2cc(F)cc3c(=O)c(C(=O)O)cn1c23` (stereo unspecified) [flumequine] it is inactive: 0; for `CCCCOc1ccc(OCCCN2CCOCC2)cc1` [pramoxine hydrochloride] it is inactive: 0.

Regarding `CCCOc1ccc2nc(NC(=O)OC)[nH]c2c1` [oxybendazole], the phenotypic hit was inactive: 0. Under `CC(CCc1ccc(O)cc1)NCCc1ccc(O)c(O)c1` (stereo unspecified) [dobutamine hydrochloride] stands inactive: 0. As to `CCOc1nc2cccc(C(=O)OC(C)OC(=O)OC3CCCCC3)c2n1Cc1ccc(-c2ccccc2-c2nn[nH]n2)cc1` (stereo unspecified) [candesartan cilextil], the phenotypic hit was inactive: 0. As for `Nc1ncnc2c1ncn2[C@H]1C[C@H](O)[C@@H](CO)O1` [deoxyadenosine], the phenotypic hit is inactive: 0. Turning to `Nc1ccc(S(N)(=O)=O)cc1` [sulfanilamide], the phenotypic hit is inactive: 0. Consider `COc1ccc2c(c1)OCC(Cc1ccc(OC)c(OC)c1)C2=O` (stereo unspecified) [deoxysappanone b trimethyl ether], for which the phenotypic hit is inactive: 0. On to `CC(=O)O[C@H](CC(=O)[O-])C[N+](C)(C)C` [acetylcarnitine], for which the phenotypic hit was inactive: 0.

In the case of `COc1ccc([C@H]2Oc3cc(OC)cc(OC)c3C[C@H]2O)cc1` [epiafzelechin trimethyl ether], the phenotypic hit is inactive: 0. As for `CC[C@]12CCCN3CCc4c(n(c5ccccc45)[C@@](O)(C(=O)OC)C1)[C@@H]32` [vincamine], the phenotypic hit is inactive: 0. Regarding `COc1ccc(CCN(C)CCCC(C#N)(c2ccc(OC)c(OC)c2)C(C)C)cc1OC` (racemic) [(±)-Verapamil hydrochloride], the phenotypic hit was active: 1. On to `CCCCCCCCCCCCCCCC[N+](C)(C)C` [cetrimonium bromide], for which the phenotypic hit is active: 1. On to `CNC1(C)C2CCC(C2)C1(C)C` (stereo unspecified) [Mecamylamine hydrochloride], for which the phenotypic hit is inactive: 0.

With `C[C@@H]1CC2C3C[C@H](F)C4=CC(=O)C=C[C@]4(C)[C@@]3(F)[C@@H](O)C[C@]2(C)[C@@]1(O)C(=O)COC(=O)C(C)(C)C` (stereo partly specified) [flumethazone pivalate], the phenotypic hit was inactive: 0. In the case of `Nc1nccs1` [aminothiazole], the phenotypic hit is inactive: 0. Under `CC(=O)OC1CC(OC(C)=O)C2(C)C(CC(OC(C)=O)C3(C)C4=CC(=O)OC(=O)C4(C)CCC32)C1(C)C` (stereo unspecified) [desfuranyl-17-oxokhivorin] stands active: 1. On to `CCCc1nc(C(C)(C)O)c(C(=O)OCc2oc(=O)oc2C)n1Cc1ccc(-c2ccccc2-c2nnn[nH]2)cc1` [olmesartan medoxomil], for which the phenotypic hit is inactive: 0. On to `Cn1c(=O)c2c(ncn2CC(O)CO)n(C)c1=O` (stereo unspecified) [dyphylline], for which the phenotypic hit is inactive: 0. The figure for `COc1cc(C)c2c(=O)cc(-c3ccccc3)oc2c1` [methoxyvone] is inactive: 0; for `CC1=C(C(=O)O)N2C(=O)[C@@H](NC(=O)[C@H](N)c3ccc(O)cc3)[C@H]2SC1` [cefadroxil] it is inactive: 0.

As for `CC1=CCCC(C)=CCC(C)(C)C=CC1` [humulene (alpha)], the phenotypic hit is inactive: 0. The figure for `OC[C@H]1O[C@@H](O[C@H]2[C@H](O)[C@@H](O)[C@@H](O)O[C@@H]2CO)[C@H](O)[C@@H](O)[C@@H]1O` [cellobiose (d[+])] is inactive: 0; for `Oc1cc(O)c2c(c1)O[C@H](c1cc(O)c(O)c(O)c1)[C@H](O)[C@H]2c1c(O)cc(O)c2c1O[C@H](c1cc(O)c(O)c(O)c1)[C@H](O)[C@H]2c1c(O)cc(O)c2c1O[C@H](c1cc(O)c(O)c(O)c1)[C@H](O)C2` [katacine] it is inactive: 0; for `C[C@H]1CC[C@@H](C(C)(C)O)CC2=C1CC[C@@H]2C` [guaiol] it is inactive: 0. Regarding `CC[C@]1(O)C[C@@H]2CN(CCc3c([nH]c4ccccc34)[C@@](C(=O)OC)(c3cc4c(cc3OC)N(C)[C@H]3[C@@](O)(C(=O)OC)[C@H](OC(C)=O)[C@]5(CC)C=CCN6CC[C@]43[C@@H]65)C2)C1` [vinblastine sulfate], the phenotypic hit was inactive: 0. `CCOC(=O)c1c(C)cc(O)c(C)c1O` [methylorsellinic acid, ethyl ester]: the phenotypic hit is inactive: 0.

In the case of `CCN(CCCc1ccccc1)CCCc1ccccc1` [alverine citrate], the phenotypic hit is inactive: 0. Take `NCCCCCN` [cadaverine sulfate]: the phenotypic hit is inactive: 0.

As for `CCN(CC)C(=O)N1CCN(C)CC1` [diethylcarbamazine citrate], the phenotypic hit is inactive: 0. The figure for `O=C(O)c1cc(O)c(O)c(O)c1` [gallic acid] is inactive: 0. In the case of `CC(C)=CCc1c(O)cc(C)oc1=O` [2-isoprenyl-3-hydroxy-5-methyl-a-pyrone], the phenotypic hit is inactive: 0.

As for `COc1c(OC)c2occc2c2oc(=O)ccc12` [pimpinellin], the phenotypic hit is inactive: 0.

Consider `CCCC(C(=O)OCCN(CC)CC)(c1ccccc1)c1ccccc1` [SKF-525A hydrochloride], for which the phenotypic hit was inactive: 0. As to `CN1CCC[C@H]1c1cccnc1` [nicotine ditartrate], the phenotypic hit is inactive: 0. As to `Clc1ccccc1C(c1ccccc1)(c1ccccc1)n1ccnc1` [clotrimazole], the phenotypic hit is inactive: 0. The figure for `NC(=O)NO` [hydroxyurea] is inactive: 0. With `Clc1ccc(COC(Cn2ccnc2)c2ccc(Cl)cc2Cl)cc1` (stereo unspecified) [econazole nitrate], the phenotypic hit was inactive: 0. `O=C(O)c1cc(=O)c2c(OCC(O)COc3cccc4oc(C(=O)O)cc(=O)c34)cccc2o1` [cromolyn sodium]: the phenotypic hit is inactive: 0. For `Cc1ccc(O)c([C@H](CCN(C(C)C)C(C)C)c2ccccc2)c1` [tolterodine hydrochloride], the phenotypic hit is inactive: 0.

For `CCCCC[C@H](CC(=O)NO)C(=O)N[C@H](C(=O)N1CCC[C@H]1CO)C(C)C` [actinonin], the phenotypic hit was inactive: 0. Consider `CC(=O)OC(C)C[N+](C)(C)C` (stereo unspecified) [methacholine chloride], for which the phenotypic hit was inactive: 0. The figure for `CCCCOc1ccc(CC(=O)NO)cc1` [bufexamac] is inactive: 0; for `Oc1c(Cl)cc(Cl)cc1Sc1cc(Cl)cc(Cl)c1O` [bithionol] it is active: 1.

For `C=CCc1ccccc1OCC(O)CNC(C)C` (stereo unspecified) [Alprenolol hydrochloride], the phenotypic hit was inactive: 0.

For the molecule `COc1ccc2c(c1)[C@@]1(C)CCC(=O)C[C@@H]1CC2` [5alpha-12-methoxy-4,4-bisnor-8,11,13-podocarpatrien-3-one], the phenotypic hit is inactive: 0. Under `NC[C@H]1CC[C@H](C(=O)O)CC1` [tranexamic acid] stands inactive: 0.

Regarding `Nc1nc(=O)c2c([nH]1)NCC(CNc1ccc(C(=O)N[C@@H](CCC(=O)O)C(=O)O)cc1)N2C=O` (stereo partly specified) [leucovorin calcium], the phenotypic hit is inactive: 0.

Take `COC(=O)[C@H](O)[C@H]1C(C)(C)[C@H](OC(C)=O)[C@@H]2CC3=C4CC(=O)O[C@@H](c5ccoc5)[C@]4(C)CC[C@@H]3[C@@]1(C)C2=O` [swietenolide-3-acetate]: the phenotypic hit is inactive: 0. In the case of `COc1cc(O)c2c(=O)c(-c3ccc(O)cc3)coc2c1` [prunetin], the phenotypic hit was inactive: 0. For `C=CC(C1=CC(=O)C(OC)=CC1=O)c1ccc(O)cc1` (stereo unspecified) [dalbergione, 4-methoxy-4'-hydroxy-], the phenotypic hit is inactive: 0. The figure for `CN(C)CCC(c1ccccc1)c1ccccn1` (stereo unspecified) [pheniramine maleate] is inactive: 0. As for `Nc1ccn([C@@H]2O[C@H](CO)[C@@H](O)[C@H]2O)c(=O)n1` [cytidine], the phenotypic hit is inactive: 0. For `CCCCCC1C(=O)CCC1CC(=O)O` (stereo unspecified) [dihydrojasmonic acid], the phenotypic hit was inactive: 0.

`CC(C)CCC[C@@H](C)[C@H]1CC[C@H]2[C@@H]3CC=C4C[C@@H](O)CC[C@]4(C)[C@H]3CC[C@]12C` [cholesterol]: the phenotypic hit is inactive: 0. Turning to `NCCc1ccc(O)c(O)c1` [Dopamine hydrochloride], the phenotypic hit was inactive: 0.

Turning to `CC(C)c1c(O)ccc2c1CCC1[C@@](C)(C=O)CCC[C@]21C` (stereo partly specified) [totaralolal], the phenotypic hit is inactive: 0. Under `NC(N)=NC(N)=Nc1ccccc1` [1-Phenylbiguanide] stands active: 1; under `COC(=O)/C(C)=C\CC12OC(C)(C)C3CC(C=C4C(=O)c5c(O)c6c(c(CCC(C)(C)Cl)c5OC431)OC1(C)CCC(=C(C)C)C6C1)C2=O` (stereo unspecified) [gamboginic acid, methyl ester], inactive: 0. In the case of `COC(=O)[C@@]1(C)CCC[C@]2(C)c3ccc(O)c(C(C)C)c3CCC12` (stereo partly specified) [totarol-19-carboxylic acid, methyl ester], the phenotypic hit is inactive: 0. Consider `COc1ccc2c(=O)cc(-c3ccccc3OC)oc2c1` [7,2'-dimethoxyflavone], for which the phenotypic hit is inactive: 0. Turning to `CC1(C)O[C@@H]2C[C@H]3[C@@H]4C[C@H](F)C5=CC(=O)C=C[C@]5(C)[C@H]4[C@@H](O)C[C@]3(C)[C@]2(C(=O)CO)O1` [flunisolide], the phenotypic hit was inactive: 0. The figure for `C[C@H](CS)C(=O)N1CCC[C@H]1C(=O)O` [Captopril] is inactive: 0; for `CN(Cc1cc(Br)cc(Br)c1N)C1CCCCC1` [bromhexine hydrochloride] it is inactive: 0.
